Data as given in patent publication US20230255946A1 (Pure Tech LYT 100, Inc., priority 2020, published 2023).

Experiment: Single dose, double-blinded, cross-over clinical trial of 801 mg LYT-100 vs pirfenidone, safety and pharmacokinetics
Settings: 801 mg each

O=c1ccc(CO)cn1-c1ccccc1 [LYT-111, 5-hydroxymethyl-pirfenidone]
overall systemic exposure (AUC) of metabolite greater after administration of LYT-100: approximately 50%
